The supplement of paper PMC10126150
Sequences with one replicate were seen in a single cluster, so their values are uncertain.

Test system: ATP
Assay: switch fluorescence ratio, 500 uM ATP over buffer (Cy3 cluster intensity, sum of 5 cycles each) (fold (ratio)); higher = stronger signal-on switching upon ATP binding; sequences stand for … in TCGTCGGCAGCGTCAGATGTGTATAAGAGACAGTTTTTTTTTTTTTTTTTTTTTTTTT…TC
Settings: aptamer strand: ATP DNA aptamer (quencher-CACCTGGGGGAGTATTGCGGAGGAAGG + anchor), 100 nM annealed; ATP concentration: 500 uM; one replicate
Summary of the method: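 For every switch-domain sequence, the fluorescence ratio is the mean of per-cluster values, each being summed target-cycle Cy3 intensity over summed buffer-cycle Cy3 intensity. Clusters outside 100-1000 RFU were excluded. On a modified Illumina MiSeq flow-cell, the Cy3-labelled switching-strand clusters were annealed to 100 nM quencher-labelled ATP aptamer, imaged in selection buffer and then after 15 min with 500 uM ATP at 22 °C. Five such cycles were run, with NaOH stripping and re-annealing between them.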
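Note: ATP exposure 15 min at 22 °C before imaging.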

GATGCATATG was tested, and the switch fluorescence ratio was 1.06.
For CGACTGAGTG, the switch fluorescence ratio was 1.02.
AAGAGCCCCA was tested, and the switch fluorescence ratio was 1.05.
TCTACGAGAA gave a switch fluorescence ratio of 1.07.
For ATTTTGCCCT, the switch fluorescence ratio was 0.998.
CTGTGCTAGC gave a switch fluorescence ratio of 0.942.
Work on CTATTATT yielded a switch fluorescence ratio of 0.994.
In the case of TTTTGCTGAT, the switch fluorescence ratio was 0.957.
GTCGTACTAT gave a switch fluorescence ratio of 0.987.
With TTATGAAGTA the switch fluorescence ratio was 0.975.
Work on GATTATCGCA yielded a switch fluorescence ratio of 1.01.
Sequence TGAGGGGAT has a switch fluorescence ratio of 0.987.
In the case of TCAGTAAATA, the switch fluorescence ratio was 0.973.
Work on TTGGATCCAG yielded a switch fluorescence ratio of 1.04.
TTTCTTGAGC showed a switch fluorescence ratio of 0.99.
In the case of GCCAAAAGGT, the switch fluorescence ratio was 1.01.
CCGATCTGGG was tested, and the switch fluorescence ratio was 1.03.
Work on ACGTCTTCTG yielded a switch fluorescence ratio of 1.04.
GTGTTATATG was tested, and the switch fluorescence ratio was 1.02.
Sequence TGGTATCGA has a switch fluorescence ratio of 0.983.
Work on CGGGTAACGC yielded a switch fluorescence ratio of 0.991.
Work on AGCGCCGTTG yielded a switch fluorescence ratio of 1.02.
TAATGGCTGT gave a switch fluorescence ratio of 0.999.
In the case of CTGCCCGAAC, the switch fluorescence ratio was 1.26.
With CCTGATGGTG the switch fluorescence ratio was 1.25.
With ACGCCGGGGA the switch fluorescence ratio was 1.05.
TCAGTACGGA was tested, and the switch fluorescence ratio was 1.03.
Sequence ATGCTAGGGA has a switch fluorescence ratio of 0.98.
For TGGAAACAGG, the switch fluorescence ratio was 1.1.
GCCCCCTAGG gave a switch fluorescence ratio of 2.66.
With GCGCACAACT the switch fluorescence ratio was 1.16.
For ACGTAATGCG, the switch fluorescence ratio was 1.04.
TACGGCCGGT showed a switch fluorescence ratio of 1.02.
Sequence AGAAGTACAG has a switch fluorescence ratio of 1.25.
Work on AGTGAAAGGT yielded a switch fluorescence ratio of 1.01.
Work on CTACCATATG yielded a switch fluorescence ratio of 1.03.
ACTACTAATG gave a switch fluorescence ratio of 1.1.
For CCCCAGCTAA, the switch fluorescence ratio was 3.23.
In the case of TTCCCTGCCC, the switch fluorescence ratio was 1.12.
AGTCGCACGC was tested, and the switch fluorescence ratio was 1.04.
Work on TAGCTCTACG yielded a switch fluorescence ratio of 0.999.
Work on GAGAACATTC yielded a switch fluorescence ratio of 0.991.
With TCCGATTACA the switch fluorescence ratio was 0.982.
Work on GTGCATACCA yielded a switch fluorescence ratio of 0.962.
TGGTTTCCAC gave a switch fluorescence ratio of 1.01.
Work on GCCATTTGTC yielded a switch fluorescence ratio of 1.02.
TGTTAAACTC gave a switch fluorescence ratio of 0.977.
Sequence CGTGATTGCG has a switch fluorescence ratio of 0.97.
With TTGAAAACT the switch fluorescence ratio was 1.07.
CTGATGGTAC was tested, and the switch fluorescence ratio was 1.73.
In the case of AACTGGAGAA, the switch fluorescence ratio was 0.947.
TTAATGCACT showed a switch fluorescence ratio of 1.02.
For TTTAGCGCTT, the switch fluorescence ratio was 0.966.
Sequence CTTGGGCGCA has a switch fluorescence ratio of 1.
In the case of TCGTTGGGTA, the switch fluorescence ratio was 1.02.
TAGGTTCGCT showed a switch fluorescence ratio of 1.01.
Work on CTCTTGATTC yielded a switch fluorescence ratio of 1.04.
In the case of ACCAAGCAGC, the switch fluorescence ratio was 1.16.
Work on TCTTGTTCCC yielded a switch fluorescence ratio of 1.07.
For ATGTCGCAGG, the switch fluorescence ratio was 0.952.
With TCGGATTTAA the switch fluorescence ratio was 1.
With TTTGGACTGA the switch fluorescence ratio was 0.946.
CTGGGTGGG gave a switch fluorescence ratio of 1.
With CAGGGTCAGA the switch fluorescence ratio was 1.05.
AATTTTACAG gave a switch fluorescence ratio of 0.992.
With TGGAGCAGGC the switch fluorescence ratio was 1.12.
Work on GAGGGCGAAA yielded a switch fluorescence ratio of 1.04.
CGATTTTACG showed a switch fluorescence ratio of 1.
Sequence ATCAGGACCG has a switch fluorescence ratio of 0.983.
GTCTTCGTTT was tested, and the switch fluorescence ratio was 0.969.
ATCGTAGAGT was tested, and the switch fluorescence ratio was 0.965.
CGGAGAACTT gave a switch fluorescence ratio of 1.01.
With TTAGTCGAGG the switch fluorescence ratio was 1.05.
GGAAGGAGCG gave a switch fluorescence ratio of 1.02.
For GTTGTACCTT, the switch fluorescence ratio was 1.04.
In the case of GTTAGGGTGG, the switch fluorescence ratio was 0.984.
CCAGATTTTT gave a switch fluorescence ratio of 0.995.
For AAATACTCGT, the switch fluorescence ratio was 1.13.
In the case of TTTGGGTGTA, the switch fluorescence ratio was 1.01.
AAGCCCGAGT showed a switch fluorescence ratio of 0.983.
AAAGCGTGCT gave a switch fluorescence ratio of 1.03.
With TATTTAACCC the switch fluorescence ratio was 0.989.
For CAGGGAGACA, the switch fluorescence ratio was 1.01.
CTTACACTA was tested, and the switch fluorescence ratio was 1.05.
AAAAGCCCAT was tested, and the switch fluorescence ratio was 0.928.
CAATTAGATC showed a switch fluorescence ratio of 1.01.
Work on AGCAGAACGT yielded a switch fluorescence ratio of 1.14.
TCTCCGTCCC was tested, and the switch fluorescence ratio was 2.45.
CGCCGCGATG showed a switch fluorescence ratio of 4.55.
Sequence ACTGCTGAGA has a switch fluorescence ratio of 1.06.
For CGCGGTG, the switch fluorescence ratio was 0.972.
Work on ATATACGCT yielded a switch fluorescence ratio of 1.06.
In the case of TACTACAGAA, the switch fluorescence ratio was 1.02.
For TCGTACGCCC, the switch fluorescence ratio was 2.09.
For CTGACATCTG, the switch fluorescence ratio was 0.991.
With CACGCACACC the switch fluorescence ratio was 1.51.
AGGTCGGTTG was tested, and the switch fluorescence ratio was 1.04.
In the case of TCTTACGTTA, the switch fluorescence ratio was 1.13.
CCTTTTTGGC showed a switch fluorescence ratio of 1.03.
AGGGTTTTGT was tested, and the switch fluorescence ratio was 0.965.
AGGACGGCTG gave a switch fluorescence ratio of 0.967.
TCCATAGATC was tested, and the switch fluorescence ratio was 0.989.
Sequence GGAAGTGGTT has a switch fluorescence ratio of 0.996.
With TCGTTGGAGG the switch fluorescence ratio was 1.01.
In the case of GCGTTCATTT, the switch fluorescence ratio was 1.01.
GCTCTCCAAG gave a switch fluorescence ratio of 1.03.
For ATTACAGC, the switch fluorescence ratio was 1.02.
In the case of TTACTCTACA, the switch fluorescence ratio was 1.31.
For GGCTTCAGGT, the switch fluorescence ratio was 0.984.
For TTCCTATGGG, the switch fluorescence ratio was 0.99.
GGGCCGCCGC showed a switch fluorescence ratio of 1.07.
GCCAGGGGCG showed a switch fluorescence ratio of 0.992.
With AGGGAGCATC the switch fluorescence ratio was 1.02.
TCCATCACGC gave a switch fluorescence ratio of 1.28.
Work on TGTTCTTAAT yielded a switch fluorescence ratio of 1.
CAGCGTTGAG gave a switch fluorescence ratio of 1.01.
CTGTGGCCTT showed a switch fluorescence ratio of 1.04.
In the case of TGGTATGAA, the switch fluorescence ratio was 0.996.
AAAATCACCG was tested, and the switch fluorescence ratio was 1.06.
AGTTCCTGTG gave a switch fluorescence ratio of 1.02.
CTGGTGTGCA gave a switch fluorescence ratio of 0.997.
With GCCTTCGCGT the switch fluorescence ratio was 1.45.
For GCAGCGTTTG, the switch fluorescence ratio was 0.987.
In the case of GACCGGTTT, the switch fluorescence ratio was 0.994.
With GGGACTGAAA the switch fluorescence ratio was 0.977.
Sequence TTTGAGAGG has a switch fluorescence ratio of 1.
ACTAACCCCC was tested, and the switch fluorescence ratio was 1.51.
With TAGTGGTCGC the switch fluorescence ratio was 1.
For AGATCGATGC, the switch fluorescence ratio was 0.994.
TCCCGGCGTC was tested, and the switch fluorescence ratio was 1.08.
Sequence TTCTGAGGAA has a switch fluorescence ratio of 1.02.
With TTGAGGTAC the switch fluorescence ratio was 1.07.
TCGGGGATTA was tested, and the switch fluorescence ratio was 1.01.
In the case of TACCCGGTCC, the switch fluorescence ratio was 1.79.
In the case of GCTTCCAATA, the switch fluorescence ratio was 2.42.
Work on AACAAATCAG yielded a switch fluorescence ratio of 0.962.
Sequence GCTTTCGGTA has a switch fluorescence ratio of 0.998.
Work on ACTCGGGCTC yielded a switch fluorescence ratio of 1.01.
Sequence AGTTTCG has a switch fluorescence ratio of 0.995.
TATACTGG showed a switch fluorescence ratio of 1.
CGTATGCGCT showed a switch fluorescence ratio of 0.959.
With TGAGTAGAGC the switch fluorescence ratio was 1.02.
Sequence GAGAAACAGT has a switch fluorescence ratio of 1.03.
Work on CACATAAGAC yielded a switch fluorescence ratio of 1.09.
TATTACAGCG gave a switch fluorescence ratio of 1.03.
Work on TTTGGGATGA yielded a switch fluorescence ratio of 1.03.
In the case of GGCCTAAGAT, the switch fluorescence ratio was 0.973.
For ATTCCTTTGG, the switch fluorescence ratio was 0.971.
AAACCGCTTG showed a switch fluorescence ratio of 1.19.
AGATGCTGG was tested, and the switch fluorescence ratio was 0.993.
With TTCCTACATA the switch fluorescence ratio was 1.08.
Work on GGTACTCAGC yielded a switch fluorescence ratio of 1.08.
In the case of AGTGACTGG, the switch fluorescence ratio was 1.02.
Work on ATTAGTTAG yielded a switch fluorescence ratio of 1.01.
With GACACAGACC the switch fluorescence ratio was 1.21.
GTCGGCGGGC gave a switch fluorescence ratio of 1.01.
In the case of AAGGTTTAGA, the switch fluorescence ratio was 1.01.
TACAATATGC showed a switch fluorescence ratio of 1.1.
